Measurements from publication PMC9619224.
These are yes or no findings as the source states them, for the method shown. Binding seen in cells or lysates may run through a third protein. Some results given as binding are weak or reduced against the parent protein; the word gives no strength. Sequences can lack the tags named with a protein.

Chains of the proteins cited; added tags and fusions are not shown. Residues count along the entry.
UniProt P35347, residues 24-415: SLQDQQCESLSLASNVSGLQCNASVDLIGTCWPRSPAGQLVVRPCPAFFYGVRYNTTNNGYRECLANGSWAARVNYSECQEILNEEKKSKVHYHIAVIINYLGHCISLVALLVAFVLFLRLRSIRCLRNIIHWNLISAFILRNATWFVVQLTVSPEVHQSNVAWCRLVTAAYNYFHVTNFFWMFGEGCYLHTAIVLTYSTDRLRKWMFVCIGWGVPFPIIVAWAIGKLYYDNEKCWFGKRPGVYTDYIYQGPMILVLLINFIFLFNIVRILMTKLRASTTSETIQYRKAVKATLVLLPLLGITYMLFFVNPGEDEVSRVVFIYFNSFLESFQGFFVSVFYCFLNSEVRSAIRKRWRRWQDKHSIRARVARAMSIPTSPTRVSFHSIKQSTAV

Biological target: Corticotropin releasing hormone receptor 1 with YFP F1 at the C‐terminus (mouse) (UniProt P35347)
Assay: split reporter; BiFC: YFP F1 at the C-terminus of the GPCR, YFP F2 at the C-end of MRAP1/MRAP2-Flag; HEK293T cells fixed 24 h after transfection, confocal microscopy

B1: MRAP2‐Flag‐F2 (protein, UniProt D3Z1Q2 1-207)
chain: MEMSAQRLASNRTSPQSPSNSDYTWEYEYYEIGPVSFEGLKAHKYSIVIGFWVGLAVFVIFMFFVLTLLTKTGAPHQDNAESSERRFRMNSFVSDFGKPLESDKVFSRQGNEESRSLFHCYINEVEHLDRVKVCHQTTAIDSDVHLQEASRSSGRPEEELARFMKFDIPNFVNTEQSSFGEDDLLISEAPVLLENKPVSQTSRIDLD
binding: binds
